From patent US20220235109A1 (CUGENE, published 2022)

T1: IL-2Rα-ECD (human, UniProt P01589 22-240)
T1 construct: coated on ELISA plates at 0.1 µg/well; also called CD25; receptor subunit α
T1 sequence: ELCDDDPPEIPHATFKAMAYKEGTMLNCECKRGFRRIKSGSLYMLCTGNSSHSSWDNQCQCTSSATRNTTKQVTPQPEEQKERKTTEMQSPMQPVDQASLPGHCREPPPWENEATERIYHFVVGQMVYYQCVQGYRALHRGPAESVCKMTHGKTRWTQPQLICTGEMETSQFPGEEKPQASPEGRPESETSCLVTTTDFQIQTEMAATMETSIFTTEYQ


Biological target: T1, IL-2Rα-ECD
Test: ELISA, IL-2Rα-ECD coated
Procedure: A panel of IL-2 muteins was expressed as C-terminal fusions to the Fc homodimer of Fc heterodimer and screened for binding to IL-2Rα in enzyme-linked immunosorbent assay (ELISA). Briefly, IL-2Rα-ECD (SEQ ID NO: 5) was coated onto the wells of Nunc Maxisorp 96-well microplates at 0.1 μg/well. After overnight incubation at 4° C. and blocking with superblock (Thermo Fisher), 3-fold serial dilutions of IL-2 Fc fusion proteins starting at 100 nM were added to each well at 100 μI/well. Following one-hour incubation at room temperature, 100 μl/well of goat anti-human IgG Fc-HRP (1:5000 diluted in diluent) were added to each well and incubated at room temperature for 1 hour. Wells were thoroughly aspirated and washed three times with PBS/0.05% Tween-20 following each step. Finally, 100 μl TMB substrate was added to each well; the plate was developed at room temperature in the dark for 10 minutes, and 100 μl/well of stop solution (2N Sulfuric acid, Ricca Chemical) was added. Absorbance was determined at 450 nm and curves were fit using Prism software (Graph Pad).

Binder	Binding EC50 vs. P-0531
P-0610 (Fc fusion, Fc homodimer, bivalent IL-2 variant; also called IL-2 Y107H/S125I bivalent Fc fusion) [human IgG1 Fc with L234A L235A G237A (EU numbers) not listed]GGGSGGGSAPTSSSTKKTQLQLEHLLLDLQMILNGINNYKNPKLTRMLTFKVYMPKKATELKHLQCLEEELKPLEEVLNLAQSKNFHLRPRDLISNINVIVLELKGSETTFMCEHADETATIVEFLNRWITFIQSIISTLT	1.24 fold (ratio of EC50s)
P-0611 (Fc fusion, Fc homodimer, bivalent IL-2 variant; also called IL-2 Y107L/S125I bivalent Fc fusion) [human IgG1 Fc with L234A L235A G237A (EU numbers) not listed]GGGSGGGSAPTSSSTKKTQLQLEHLLLDLQMILNGINNYKNPKLTRMLTFKVYMPKKATELKHLQCLEEELKPLEEVLNLAQSKNFHLRPRDLISNINVIVLELKGSETTFMCELADETATIVEFLNRWITFIQSIISTLT	1.09 fold (ratio of EC50s)
P-0612 (Fc fusion, Fc homodimer, bivalent IL-2 variant; also called IL-2 Y107V/S125I bivalent Fc fusion) [human IgG1 Fc with L234A L235A G237A (EU numbers) not listed]GGGSGGGSAPTSSSTKKTQLQLEHLLLDLQMILNGINNYKNPKLTRMLTFKVYMPKKATELKHLQCLEEELKPLEEVLNLAQSKNFHLRPRDLISNINVIVLELKGSETTFMCEVADETATIVEFLNRWITFIQSIISTLT	1 fold (ratio of EC50s)
